Assay results from the supplement of paper PMC3334620.
The full ranking holds about 33,000 sequences; the median of “E-score (-0.5 to 0.5)” is about -0.016, and the highest 2% start at about 0.31. The list shows a part of the results.

Target: Cst6 (UniProt P40535)
Test: PBM E-score (8-mer binding enrichment) (E-score (-0.5 to 0.5)); higher = stronger / more preferred TF binding; most listed sequences are background and not binding sites
Conditions: protein concentration: 200 nM; construct: GST-DNA-binding domain
How it was run: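 Using PURExpress in vitro transcription/translation, GST-tagged yeast transcription factors were made in full-length or DNA-binding-domain form. These were applied at about 100-200 nM to double-stranded universal all-10-mer Agilent arrays, and bound protein was detected with fluorescent anti-GST. Scans were normalised with masliner before the Universal PBM Analysis Suite assigned E-scores to ungapped eight-base words pooled with their reverse complements.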

**Q.** For AAAGGCCT, which “PBM E-score” value is on record?
**A.** -0.0918

**Q.** Which “PBM E-score” value does the source give for TACTGATA here?
**A.** 0.195

**Q.** With AGTCACAC as the sequence, how does the “PBM E-score” value read?
**A.** 0.00702

**Q.** With CTTTTTGC as the sequence, how does the “PBM E-score” value read?
**A.** -0.00689

**Q.** How did the “PBM E-score” value turn out when AGATGTAG was run?
**A.** -0.0363

**Q.** For ATTTAGAC, which “PBM E-score” value is on record?
**A.** 0.126

**Q.** GCGCGTAA was tested. Which “PBM E-score” value did it give?
**A.** 0.224

**Q.** For CTAGTTCA, which “PBM E-score” value is on record?
**A.** -0.0835

**Q.** Which “PBM E-score” value does the source give for AGGGATAG here?
**A.** -0.0446

**Q.** How did the “PBM E-score” value turn out when AGATCGGC was run?
**A.** -0.193

**Q.** For GAACGAGC, which “PBM E-score” value is on record?
**A.** 0.0755

**Q.** With AGGGTCGC as the sequence, how does the “PBM E-score” value read?
**A.** -0.112

**Q.** How did the “PBM E-score” value turn out when AATAAGCA was run?
**A.** 0.112

**Q.** For CCGGGCTC, which “PBM E-score” value is on record?
**A.** -0.273

**Q.** For ACGCCAAG, which “PBM E-score” value is on record?
**A.** -0.0479

**Q.** How did the “PBM E-score” value turn out when AGGACACG was run?
**A.** -0.315

**Q.** AATTATCA was tested. Which “PBM E-score” value did it give?
**A.** 0.356

**Q.** How did the “PBM E-score” value turn out when AACTGGAC was run?
**A.** 0.0255

**Q.** Which “PBM E-score” value does the source give for ATACGCAA here?
**A.** 0.283

**Q.** ACTGGGGA was tested. Which “PBM E-score” value did it give?
**A.** -0.291

**Q.** Which “PBM E-score” value does the source give for AGTCTTGA here?
**A.** -0.0596

**Q.** How did the “PBM E-score” value turn out when AAGAAGCG was run?
**A.** -0.146

**Q.** For CGATTCAC, which “PBM E-score” value is on record?
**A.** -0.0177

**Q.** Which “PBM E-score” value does the source give for ATGCCTAA here?
**A.** -0.0115

**Q.** With CTAACGTC as the sequence, how does the “PBM E-score” value read?
**A.** 0.356

**Q.** Which “PBM E-score” value does the source give for CGCTGGAG here?
**A.** -0.183

**Q.** With CACGAACG as the sequence, how does the “PBM E-score” value read?
**A.** -0.0536

**Q.** ACCGCCTG was tested. Which “PBM E-score” value did it give?
**A.** -0.277

**Q.** Which “PBM E-score” value does the source give for ATCTACCA here?
**A.** 0.0696

**Q.** With GAGTGACA as the sequence, how does the “PBM E-score” value read?
**A.** 0.287

**Q.** GAGGACTA was tested. Which “PBM E-score” value did it give?
**A.** -0.193

**Q.** How did the “PBM E-score” value turn out when GATGGTGA was run?
**A.** 0.237

**Q.** CCCACCAC was tested. Which “PBM E-score” value did it give?
**A.** -0.194

**Q.** AACCTCCA was tested. Which “PBM E-score” value did it give?
**A.** -0.33

**Q.** How did the “PBM E-score” value turn out when GACTGCGA was run?
**A.** -0.0927

**Q.** With GCGGGAAC as the sequence, how does the “PBM E-score” value read?
**A.** -0.197

**Q.** With AGGTGGTG as the sequence, how does the “PBM E-score” value read?
**A.** -0.0837

**Q.** With CTATAGAA as the sequence, how does the “PBM E-score” value read?
**A.** 0.0598

**Q.** For GATGATCC, which “PBM E-score” value is on record?
**A.** 0.00428

**Q.** Which “PBM E-score” value does the source give for CTAACCGC here?
**A.** -0.0163

**Q.** How did the “PBM E-score” value turn out when CCGGAGAG was run?
**A.** -0.191

**Q.** For ATGCTTTC, which “PBM E-score” value is on record?
**A.** 0.0982

**Q.** With GGTATTTA as the sequence, how does the “PBM E-score” value read?
**A.** 0.0257

**Q.** For AAAAGAAG, which “PBM E-score” value is on record?
**A.** 0.193

**Q.** For ACGGACCG, which “PBM E-score” value is on record?
**A.** -0.235

**Q.** Which “PBM E-score” value does the source give for GAACTTGA here?
**A.** 0.0972

**Q.** For ATTTCCCC, which “PBM E-score” value is on record?
**A.** -0.104

**Q.** GATGCACA was tested. Which “PBM E-score” value did it give?
**A.** -0.0313

**Q.** For GTTGTCGA, which “PBM E-score” value is on record?
**A.** 0.00085

**Q.** ATGATGTA was tested. Which “PBM E-score” value did it give?
**A.** 0.462

**Q.** Which “PBM E-score” value does the source give for AGCACATA here?
**A.** -0.0193

**Q.** How did the “PBM E-score” value turn out when ACTCGGGC was run?
**A.** -0.157

**Q.** With AACTTTCC as the sequence, how does the “PBM E-score” value read?
**A.** -0.158

**Q.** How did the “PBM E-score” value turn out when TACCTACA was run?
**A.** 0.0531

**Q.** Which “PBM E-score” value does the source give for ATAAGAAA here?
**A.** 0.327

**Q.** How did the “PBM E-score” value turn out when ACTAACCG was run?
**A.** -0.0177

**Q.** With ACCCGAGT as the sequence, how does the “PBM E-score” value read?
**A.** -0.174

**Q.** Which “PBM E-score” value does the source give for TAGTCGGA here?
**A.** -0.176

**Q.** CTAACTCC was tested. Which “PBM E-score” value did it give?
**A.** -0.287

**Q.** With TTATCGAA as the sequence, how does the “PBM E-score” value read?
**A.** 0.178

**Q.** ATCGTAGA was tested. Which “PBM E-score” value did it give?
**A.** -0.047

**Q.** How did the “PBM E-score” value turn out when AACGAAAA was run?
**A.** 0.207

**Q.** For AACGAGAA, which “PBM E-score” value is on record?
**A.** 0.128

**Q.** With CTTACGTA as the sequence, how does the “PBM E-score” value read?
**A.** 0.466

**Q.** For AAGTTATA, which “PBM E-score” value is on record?
**A.** 0.189

**Q.** Which “PBM E-score” value does the source give for ACCGAACC here?
**A.** -0.196

**Q.** How did the “PBM E-score” value turn out when ATGCTAGA was run?
**A.** -0.171

**Q.** With GGCGTATA as the sequence, how does the “PBM E-score” value read?
**A.** 0.0506

**Q.** ACAAAGCG was tested. Which “PBM E-score” value did it give?
**A.** 0.12

**Q.** Which “PBM E-score” value does the source give for GATTAACA here?
**A.** 0.269

**Q.** Which “PBM E-score” value does the source give for ACGGAGAC here?
**A.** -0.00801

**Q.** With GCTAGCGA as the sequence, how does the “PBM E-score” value read?
**A.** -0.0377

**Q.** Which “PBM E-score” value does the source give for ATTACCGG here?
**A.** -0.0505

**Q.** For TCTAGTAA, which “PBM E-score” value is on record?
**A.** 0.182

**Q.** Which “PBM E-score” value does the source give for CATCCTGG here?
**A.** -0.0537

**Q.** With ATGGATGG as the sequence, how does the “PBM E-score” value read?
**A.** -0.0464

**Q.** For CGGCTCGA, which “PBM E-score” value is on record?
**A.** 0.0507

**Q.** Which “PBM E-score” value does the source give for ATTAGCAG here?
**A.** -0.107

**Q.** Which “PBM E-score” value does the source give for AGTTTCGA here?
**A.** -0.15

**Q.** How did the “PBM E-score” value turn out when CCATTGGC was run?
**A.** -0.279

**Q.** With TCATTAGA as the sequence, how does the “PBM E-score” value read?
**A.** 0.16

**Q.** For AGACCTGG, which “PBM E-score” value is on record?
**A.** -0.288

**Q.** For TCGCGCCA, which “PBM E-score” value is on record?
**A.** -0.0121

**Q.** How did the “PBM E-score” value turn out when ATTACTAC was run?
**A.** 0.12

**Q.** For ACAGCCGT, which “PBM E-score” value is on record?
**A.** 0.157

**Q.** How did the “PBM E-score” value turn out when CGTAGGAA was run?
**A.** 0.00913
